The labels stand for the following.
B1: glmS ribozyme (parent)
chain: AUAAAAGCGCCAGAACUACAGAAAUGUAGUUGACGAGGAGGAGGUUUAUCGAAUUUUCGGCGGAUGCCUCCAAA

Details in all cases: with glucosamine-6-phosphate
In series [1] the parent is B1. The experiment in a line: self-cleavage kobs at 40 uM GlcN6P; higher = faster cleavage; RNA array. The gist of the method:
(§1)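 Over ~14 h at 37 °C, tiles were imaged as glucosamine-6-phosphate (40 μM to 10 mM) in HEPES/KCl/Mg(OAc)2 buffer flowed across sequenced MiSeq chips. The chips carried barcoded ribozyme variants transcribed in situ by E. coli RNA polymerase and tracked with a hybridised Cy3 probe. After normalisation to baseline and to non-cleaving reference variants, one- or two-exponential decay fits of per-tile medians gave kobs. kcat and KM followed from weighted Michaelis–Menten fits across concentrations.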

Series [2] covers variants of B1. Description: self-cleavage kobs at 640 uM GlcN6P; higher = faster cleavage; RNA array. The gist of the method: as §1
Series [3] covers variants of B1. Description: self-cleavage kobs at 160 uM GlcN6P; higher = faster cleavage; RNA array. An outline of the steps:
as §1

The variants in series [4] derive from B1. Description: self-cleavage kobs at 2500 uM GlcN6P; higher = faster cleavage; RNA array. The gist of the method: as §1
In series [5] the parent is B1. Description: self-cleavage kobs at 10000 uM GlcN6P; higher = faster cleavage; RNA array. An outline of the steps:
as §1

± gives the standard error. Variants at the floor of the assay are shown more often than the library holds them. Where only a bound is given, the exact number is not on record here.

In the case of U30G G38A, in the series with glucosamine-6-phosphate [1], the “self-cleavage kobs at 40 uM GlcN6P” value was less than 1e-05 s⁻¹. Besides, in the series with glucosamine-6-phosphate [2], the “self-cleavage kobs at 640 uM GlcN6P” value was less than 1e-05 s⁻¹. Also, the “self-cleavage kobs at 160 uM GlcN6P” value with glucosamine-6-phosphate [3] was less than 1e-05 s⁻¹. Further, the “self-cleavage kobs at 2500 uM GlcN6P” value in the series with glucosamine-6-phosphate [4] was less than 1e-05 s⁻¹. Also, the “self-cleavage kobs at 10000 uM GlcN6P” value with glucosamine-6-phosphate [5] was less than 1e-05 s⁻¹.
Regarding C34G C58A, the “self-cleavage kobs at 40 uM GlcN6P” value in the series with glucosamine-6-phosphate [1] was less than 1e-05 s⁻¹. Further, the “self-cleavage kobs at 640 uM GlcN6P” value in the series with glucosamine-6-phosphate [2] is less than 1e-05 s⁻¹. For the same variant, the “self-cleavage kobs at 160 uM GlcN6P” value with glucosamine-6-phosphate [3] was less than 1e-05 s⁻¹. Moreover, the “self-cleavage kobs at 2500 uM GlcN6P” value with glucosamine-6-phosphate [4] is less than 1e-05 s⁻¹. The “self-cleavage kobs at 10000 uM GlcN6P” value with glucosamine-6-phosphate [5] is less than 1e-05 s⁻¹.
U31C U55C: in the series with glucosamine-6-phosphate [1], the “self-cleavage kobs at 40 uM GlcN6P” value was found to be 8.92e-05 ± 2.1e-05 s⁻¹. The “self-cleavage kobs at 640 uM GlcN6P” value with glucosamine-6-phosphate [2] was 0.00116 ± 0.00021 s⁻¹. Besides, the “self-cleavage kobs at 160 uM GlcN6P” value in the series with glucosamine-6-phosphate [3] turned out to be 0.000317 ± 6.4e-05 s⁻¹. Moreover, the “self-cleavage kobs at 2500 uM GlcN6P” value with glucosamine-6-phosphate [4] is 0.00284 ± 0.00079 s⁻¹. Further, the “self-cleavage kobs at 10000 uM GlcN6P” value with glucosamine-6-phosphate [5] came to 0.00585 ± 0.00073 s⁻¹.
For G38A G44U, in that order: less than 1e-05 s⁻¹, less than 1e-05 s⁻¹, less than 1e-05 s⁻¹, less than 1e-05 s⁻¹ and less than 1e-05 s⁻¹.
Take A33G A39G: the “self-cleavage kobs at 40 uM GlcN6P” value with glucosamine-6-phosphate [1] was less than 1e-05 s⁻¹. Moreover, in the series with glucosamine-6-phosphate [2], the “self-cleavage kobs at 640 uM GlcN6P” value is less than 1e-05 s⁻¹. In the series with glucosamine-6-phosphate [3], the “self-cleavage kobs at 160 uM GlcN6P” value was less than 1e-05 s⁻¹. Also, the “self-cleavage kobs at 10000 uM GlcN6P” value with glucosamine-6-phosphate [5] was less than 1e-05 s⁻¹.
For G32U C34G, the “self-cleavage kobs at 40 uM GlcN6P” value with glucosamine-6-phosphate [1] was less than 1e-05 s⁻¹.
For C16G G37U, the “self-cleavage kobs at 40 uM GlcN6P” value with glucosamine-6-phosphate [1] is less than 1e-05 s⁻¹. Besides, the “self-cleavage kobs at 640 uM GlcN6P” value with glucosamine-6-phosphate [2] is less than 1e-05 s⁻¹. Besides, the “self-cleavage kobs at 160 uM GlcN6P” value in the series with glucosamine-6-phosphate [3] is less than 1e-05 s⁻¹. In addition, in the series with glucosamine-6-phosphate [4], the “self-cleavage kobs at 2500 uM GlcN6P” value is less than 1e-05 s⁻¹. In addition, in the series with glucosamine-6-phosphate [5], the “self-cleavage kobs at 10000 uM GlcN6P” value was less than 1e-05 s⁻¹.
Turning to C16G G29A U49C, the “self-cleavage kobs at 40 uM GlcN6P” value with glucosamine-6-phosphate [1] was less than 1e-05 s⁻¹. The “self-cleavage kobs at 10000 uM GlcN6P” value with glucosamine-6-phosphate [5] is less than 1e-05 s⁻¹.
Turning to U30A A39U, in the series with glucosamine-6-phosphate [1], the “self-cleavage kobs at 40 uM GlcN6P” value was determined as 0.000191 ± 5.4e-05 s⁻¹. For the same variant, the “self-cleavage kobs at 640 uM GlcN6P” value in the series with glucosamine-6-phosphate [2] is 0.00188 ± 0.00036 s⁻¹. The “self-cleavage kobs at 160 uM GlcN6P” value with glucosamine-6-phosphate [3] turned out to be 0.000401 ± 8.1e-05 s⁻¹. The “self-cleavage kobs at 2500 uM GlcN6P” value with glucosamine-6-phosphate [4] was found to be 0.0022 ± 0.00046 s⁻¹. Further, the “self-cleavage kobs at 10000 uM GlcN6P” value with glucosamine-6-phosphate [5] is 0.00745 ± 0.0016 s⁻¹.
For G29A A33U C58U, the “self-cleavage kobs at 40 uM GlcN6P” value with glucosamine-6-phosphate [1] was less than 1e-05 s⁻¹. Moreover, the “self-cleavage kobs at 640 uM GlcN6P” value with glucosamine-6-phosphate [2] is less than 1e-05 s⁻¹.
Consider A33G U65G, for which, in the series with glucosamine-6-phosphate [1], the “self-cleavage kobs at 40 uM GlcN6P” value was less than 1e-05 s⁻¹. The “self-cleavage kobs at 640 uM GlcN6P” value in the series with glucosamine-6-phosphate [2] was less than 1e-05 s⁻¹. Moreover, in the series with glucosamine-6-phosphate [3], the “self-cleavage kobs at 160 uM GlcN6P” value was less than 1e-05 s⁻¹. Further, the “self-cleavage kobs at 2500 uM GlcN6P” value with glucosamine-6-phosphate [4] was less than 1e-05 s⁻¹. Moreover, the “self-cleavage kobs at 10000 uM GlcN6P” value in the series with glucosamine-6-phosphate [5] is less than 1e-05 s⁻¹.
In the case of A36C C61G, the “self-cleavage kobs at 40 uM GlcN6P” value in the series with glucosamine-6-phosphate [1] was less than 1e-05 s⁻¹. In addition, the “self-cleavage kobs at 2500 uM GlcN6P” value with glucosamine-6-phosphate [4] is less than 1e-05 s⁻¹.
Regarding G35A G51C C58U, the “self-cleavage kobs at 40 uM GlcN6P” value with glucosamine-6-phosphate [1] was less than 1e-05 s⁻¹. Moreover, the “self-cleavage kobs at 10000 uM GlcN6P” value with glucosamine-6-phosphate [5] is less than 1e-05 s⁻¹.
Regarding G32U C61U C67A, the “self-cleavage kobs at 40 uM GlcN6P” value with glucosamine-6-phosphate [1] is less than 1e-05 s⁻¹. In addition, the “self-cleavage kobs at 640 uM GlcN6P” value in the series with glucosamine-6-phosphate [2] was less than 1e-05 s⁻¹. The “self-cleavage kobs at 10000 uM GlcN6P” value with glucosamine-6-phosphate [5] is less than 1e-05 s⁻¹.
In the case of C16U G40U U56A C71G, the “self-cleavage kobs at 40 uM GlcN6P” value with glucosamine-6-phosphate [1] amounted to 3.89e-05 ± 1.1e-05 s⁻¹. Besides, the “self-cleavage kobs at 10000 uM GlcN6P” value with glucosamine-6-phosphate [5] stood at 0.00169 ± 0.00032 s⁻¹.
As for A36C C58A U65A C68G, in the series with glucosamine-6-phosphate [1], the “self-cleavage kobs at 40 uM GlcN6P” value was determined as 0.000139 ± 4.3e-05 s⁻¹.
On the same count and under the same terms, then A36G U49G, with less than 1e-05 s⁻¹; and U31G U54A, with 0.000582 ± 0.00015 s⁻¹.
Turning to A36C G51C G59A C68A, in the series with glucosamine-6-phosphate [1], the “self-cleavage kobs at 40 uM GlcN6P” value was less than 1e-05 s⁻¹. Besides, the “self-cleavage kobs at 10000 uM GlcN6P” value with glucosamine-6-phosphate [5] was less than 1e-05 s⁻¹.
Consider G35C U46A, for which the “self-cleavage kobs at 40 uM GlcN6P” value with glucosamine-6-phosphate [1] is less than 1e-05 s⁻¹. Also, in the series with glucosamine-6-phosphate [2], the “self-cleavage kobs at 640 uM GlcN6P” value was less than 1e-05 s⁻¹. Also, the “self-cleavage kobs at 160 uM GlcN6P” value with glucosamine-6-phosphate [3] is less than 1e-05 s⁻¹. Moreover, the “self-cleavage kobs at 10000 uM GlcN6P” value with glucosamine-6-phosphate [5] was less than 1e-05 s⁻¹.
As for G29A A42U, the “self-cleavage kobs at 40 uM GlcN6P” value with glucosamine-6-phosphate [1] was less than 1e-05 s⁻¹. Moreover, the “self-cleavage kobs at 160 uM GlcN6P” value in the series with glucosamine-6-phosphate [3] was less than 1e-05 s⁻¹.

The record behind these values is the supplement of paper PMC7125110.
